The list shows a part of the results. Interaction screen of human proteins with wild-type SARS-CoV-2 proteins by split-DHFR complementation in yeast, 1 µg/mL methotrexate. Value = fitness of the pair (three or more lineages) minus that of the viral protein without a human partner, on a scale set by negative (0) and fused positive (1) controls, mean of up to three cultures; higher = more likely to interact. Active = false discovery rate below 0.05 (one-sided t-test) in at least one culture. Nearly all pairs are not hits, and differences among them are mostly noise (correlation between cultures about 0.3); most hits were seen in one culture only. Human sequences are the Swiss-Prot entries looked up by gene name; the clone may be another isoform. NSP2 values were corrected by the authors for a growth advantage. Listed are human proteins with a hit and a random twelfth of the others.
B1: PDIA5, Q14554 (protein)
chain: MARAGPAWLLLAIWVVLPSWLSSAKVSSLIERISDPKDLKKLLRTRNNVLVLYSKSEVAAENHLRLLSTVAQAVKGQGTICWVDCGDAESRKLCKKMKVDLSPKDKKVELFHYQDGAFHTEYNRAVTFKSIVAFLKDPKGPPLWEEDPGAKDVVHLDSEKDFRRLLKKEEKPLLIMFYAPWCSMCKRMMPHFQKAATQLRGHAVLAGMNVYSSEFENIKEEYSVRGFPTICYFEKGRFLFQYDNYGSTAEDIVEWLKNPQPPQPQVPETPWADEGGSVYHLTDEDFDQFVKEHSSVLVMFHAPWCGHCKKMKPEFEKAAEALHGEADSSGVLAAVDATVNKALAERFHISEFPTLKYFKNGEKYAVPVLRTKKKFLEWMQNPEAPPPPEPTWEEQQTSVLHLVGDNFRETLKKKKHTLVMFYAPWCPHCKKVIPHFTATADAFKDDRKIACAAVDCVKDKNQDLCQQEAVKGYPTFHYYHYGKFAEKYDSDRTELGFTNYIRALREGDHERLGKKKEEL
B2: CNTD1, Q8N815 (protein)
chain: MDGPMRPRSASLVDFQFGVVATETIEDALLHLAQQNEQAVREASGRLGRFREPQIVEFVFLLSEQWCLEKSVSYQAVEILERFMVKQAENICRQATIQPRDNKRESQNWRALKQQLVNKFTLRLVSCVQLASKLSFRNKIISNITVLNFLQALGYLHTKEELLESELDVLKSLNFRINLPTPLAYVETLLEVLGYNGCLVPAMRLHATCLTLLDLVYLLHEPIYESLLRASIENSTPSQLQGEKFTSVKEDFMLLAVGIIAASAFIQNHECWSQVVGHLQSITGIALASIAEFSYAILTHGVGANTPGRQQSIPPHLAARALKTVASSNT
B3: CHN1, P15882 (protein)
chain: MALTLFDTDEYRPPVWKSYLYQLQQEAPHPRRITCTCEVENRPKYYGREFHGMISREAADQLLIVAEGSYLIRESQRQPGTYTLALRFGSQTRNFRLYYDGKHFVGEKRFESIHDLVTDGLITLYIETKAAEYIAKMTINPIYEHVGYTTLNREPAYKKHMPVLKETHDERDSTGQDGVSEKRLTSLVRRATLKENEQIPKYEKIHNFKVHTFRGPHWCEYCANFMWGLIAQGVKCADCGLNVHKQCSKMVPNDCKPDLKHVKKVYSCDLTTLVKAHTTKRPMVVDMCIREIESRGLNSEGLYRVSGFSDLIEDVKMAFDRDGEKADISVNMYEDINIITGALKLYFRDLPIPLITYDAYPKFIESAKIMDPDEQLETLHEALKLLPPAHCETLRYLMAHLKRVTLHEKENLMNAENLGIVFGPTLMRSPELDAMAALNDIRYQRLVVELLIKNEDILF
B4: FAM151A, Q8WW52 (protein)
chain: MVCREQLSKNQVKWVFAGITCVSVVVIAAIVLAITLRRPGCELEACSPDADMLDYLLSLGQISRRDALEVTWYHAANSKKAMTAALNSNITVLEADVNVEGLGTANETGVPIMAHPPTIYSDNTLEQWLDAVLGSSQKGIKLDFKNIKAVGPSLDLLRQLTEEGKVRRPIWINADILKGPNMLISTEVNATQFLALVQEKYPKATLSPGWTTFYMSTSPNRTYTQAMVEKMHELVGGVPQRVTFPVRSSMVRAAWPHFSWLLSQSERYSLTLWQAASDPMSVEDLLYVRDNTAVHQVYYDIFEPLLSQFKQLALNATRKPMYYTGGSLIPLLQLPGDDGLNVEWLVPDVQGSGKTATMTLPDTEGMILLNTGLEGTVAENPVPIVHTPSGNILTLESCLQQLATHPGHWGIHLQIAEPAALRPSLALLARLSSLGLLHWPVWVGAKISHGSFSVPGHVAGRELLTAVAEVFPHVTVAPGWPEEVLGSGYREQLLTDMLELCQGLWQPVSFQMQAMLLGHSTAGAIGRLLASSPRATVTVEHNPAGGDYASVRTALLAARAVDRTRVYYRLPQGYHKDLLAHVGRN

Target: SARS-CoV-2 M
Experiment: yeast fitness gain over the viral ORF with no human partner (scaled fitness); higher = more likely to interact
Description: (§1)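 Split mouse DHFR complementation in pooled diploid yeast: human ORFeome clones carry one fragment and viral ORFs the other; barcoded lineages compete in 1 µg/mL methotrexate and fitness is read by barcode sequencing in up to three cultures.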

Row | Binder | yeast fitness gain
1 | B1 | inactive: 0.0438
2 | B2 | inactive: -0.0873
3 | B3 | inactive: -0.148
4 | B4 | inactive: -0.0337

Target: SARS-CoV-2 N
Experiment: as above
Description: as §1

Row | Binder | yeast fitness gain
5 | B1 | inactive: -0.0885

Target: SARS-CoV-2 NSP1
Experiment: as above
Description: as §1

Row | Binder | yeast fitness gain
6 | B1 | inactive: 0.14
7 | B4 | inactive: 0.0593

Target: SARS-CoV-2 NSP10
Experiment: as above
Description: as §1

Row | Binder | yeast fitness gain
8 | B1 | inactive: -0.0313
9 | B4 | inactive: 0.141

Target: SARS-CoV-2 NSP12
Experiment: as above
Description: as §1

Row | Binder | yeast fitness gain
10 | B1 | inactive: 0.0809
11 | B2 | inactive: 0.00944
12 | B3 | inactive: 0.0235
13 | B4 | inactive: 0.0977

Target: SARS-CoV-2 NSP13
Experiment: as above
Description: as §1

Row | Binder | yeast fitness gain
14 | B1 | inactive: 0.0714
15 | B2 | inactive: 0.0395
16 | B3 | inactive: 0.0261
17 | B4 | inactive: 0.0174

Target: SARS-CoV-2 NSP15
Experiment: as above
Description: as §1

Row | Binder | yeast fitness gain
18 | B1 | inactive: -0.0406
19 | B4 | inactive: 0.0534

Target: SARS-CoV-2 NSP16
Experiment: as above
Description: as §1

Row | Binder | yeast fitness gain
20 | B1 | inactive: -0.166
21 | B4 | inactive: 0.0084

Target: SARS-CoV-2 NSP2
Experiment: as above
Description: as §1

Row | Binder | yeast fitness gain
22 | B1 | inactive: -0.0732
23 | B2 | inactive: -0.301
24 | B4 | inactive: -0.215

Target: SARS-CoV-2 NSP5
Experiment: as above
Description: as §1

Row | Binder | yeast fitness gain
25 | B1 | inactive: -0.0268
26 | B4 | inactive: -0.0261

Target: SARS-CoV-2 NSP6
Experiment: as above
Description: as §1

Row | Binder | yeast fitness gain
27 | B1 | inactive: -0.0581
28 | B2 | inactive: -0.0306

Target: SARS-CoV-2 NSP7
Experiment: as above
Description: as §1

Row | Binder | yeast fitness gain
29 | B1 | inactive: 0.0455
30 | B4 | inactive: -0.0738

Target: SARS-CoV-2 NSP8
Experiment: as above
Description: as §1

Row | Binder | yeast fitness gain
31 | B1 | inactive: -0.0336
32 | B4 | inactive: 0.13

Target: SARS-CoV-2 NSP9
Experiment: as above
Description: as §1

Row | Binder | yeast fitness gain
33 | B1 | inactive: -0.0342
34 | B2 | inactive: -0.161

Target: SARS-CoV-2 ORF10
Experiment: as above
Description: as §1

Row | Binder | yeast fitness gain
35 | B1 | inactive: 0.0154
36 | B4 | inactive: -0.12

Target: SARS-CoV-2 ORF3A
Experiment: as above
Description: as §1

Row | Binder | yeast fitness gain
37 | B1 | inactive: -0.0581

Target: SARS-CoV-2 ORF3B
Experiment: as above
Description: as §1

Row | Binder | yeast fitness gain
38 | B1 | inactive: -0.0407
39 | B2 | inactive: -0.0838
40 | B4 | inactive: 0.00726

Target: SARS-CoV-2 ORF6
Experiment: as above
Description: as §1

Row | Binder | yeast fitness gain
41 | B1 | inactive: 0.0352
42 | B2 | inactive: -0.0473
43 | B3 | inactive: -0.0881
44 | B4 | inactive: 0.0474

Target: SARS-CoV-2 ORF7A
Experiment: as above
Description: as §1

Row | Binder | yeast fitness gain
45 | B1 | inactive: -0.0767
46 | B2 | inactive: -0.121
47 | B3 | inactive: 0.0639
48 | B4 | inactive: -0.00516

Target: SARS-CoV-2 ORF7B
Experiment: as above
Description: as §1

Row | Binder | yeast fitness gain
49 | B1 | inactive: -0.0822
50 | B2 | inactive: -0.144
51 | B4 | inactive: -0.167

Target: SARS-CoV-2 ORF8
Experiment: as above
Description: as §1

Row | Binder | yeast fitness gain
52 | B1 | inactive: 0.0413
53 | B2 | inactive: -0.0575
54 | B3 | inactive: -0.0549
55 | B4 | inactive: -0.0738

Target: SARS-CoV-2 ORF9B
Experiment: as above
Description: as §1

Row | Binder | yeast fitness gain
56 | B1 | inactive: -0.00721
57 | B3 | inactive: -0.257
58 | B4 | inactive: 0.0092

Target: SARS-CoV-2 ORF9Bwu (the 73-codon ORF)
Experiment: as above
Description: as §1

Row | Binder | yeast fitness gain
59 | B1 | inactive: 0.00932

Target: SARS-CoV-2 S
Experiment: as above
Description: as §1

Row | Binder | yeast fitness gain
60 | B1 | inactive: -0.13

Source: the supplement of paper PMC11741623
